From PMC6919601, “Identification of Plasmodium dipeptidyl aminopeptidase allosteric inhibitors by high throughput screening” (PLoS ONE, 2019)
Out of some 110,000 compounds screened, about 230 (0.21%) showed an effect of 50% or more. The list shows a part of the results.

biological target: DPAP1 (Plasmodium falciparum, UniProt Q8IIJ9); experiment: primary screen, percent inhibition; read by cleavage of a fluorogenic dipeptide substrate; higher = more effect of the substance; set-up: species or system P. falciparum D10 trophozoite lysates; single well
Sequence (Q8IIJ9 whole entry, looked up): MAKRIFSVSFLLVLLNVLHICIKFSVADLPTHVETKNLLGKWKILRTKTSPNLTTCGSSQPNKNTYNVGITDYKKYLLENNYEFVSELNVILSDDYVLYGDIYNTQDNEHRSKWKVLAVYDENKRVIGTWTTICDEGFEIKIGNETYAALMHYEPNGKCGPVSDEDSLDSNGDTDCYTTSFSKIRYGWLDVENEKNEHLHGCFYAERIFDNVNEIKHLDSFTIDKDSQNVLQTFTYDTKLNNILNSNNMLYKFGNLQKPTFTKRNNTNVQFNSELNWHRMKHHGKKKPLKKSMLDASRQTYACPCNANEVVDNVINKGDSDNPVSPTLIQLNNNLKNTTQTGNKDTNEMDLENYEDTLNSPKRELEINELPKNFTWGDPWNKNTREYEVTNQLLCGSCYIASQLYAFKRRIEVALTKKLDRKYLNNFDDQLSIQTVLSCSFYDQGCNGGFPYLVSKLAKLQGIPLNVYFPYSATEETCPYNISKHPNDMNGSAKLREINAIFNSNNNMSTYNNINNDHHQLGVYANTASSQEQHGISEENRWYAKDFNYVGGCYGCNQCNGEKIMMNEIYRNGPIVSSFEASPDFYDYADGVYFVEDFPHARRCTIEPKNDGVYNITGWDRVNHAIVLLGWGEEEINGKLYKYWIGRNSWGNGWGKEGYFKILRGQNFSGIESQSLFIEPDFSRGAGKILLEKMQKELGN
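Further: 30 min substrate incubation versus DMSO and 10 µM JCP410 controls.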

First: CN(C)CCCN(CCCN(C)C)Cc1ccc(Cl)c([N+](=O)[O-])c1
Second: CN(C)CCN(Cc1ccccc1)CC(c1ccccc1)c1ccccc1
The “% Inhibition @ 10 uM” value of the first is higher: -0.132% for the first, -2.95% for the second.

First: COc1ccc(C)cc1N(CC(=O)N1CCCCC1)S(C)(=O)=O
Second: O=C(Cn1ncc2ccc(Cl)cc21)N1CCCCC1
The “% Inhibition @ 10 uM” value of the first is lower: -12.4% for the first, -2.88% for the second.

Compared with `NC(=O)C1CCN(Cc2ccc(Br)cc2)CC1`, `CSc1ccc(CN(C)C2CCN(C)CC2)cc1` is higher in “% Inhibition @ 10 uM” value: -0.603% for the first, 3.1% for the second.

Compared with `COc1cccc(CNC(=O)CCCn2ccc3cc(S(=O)(=O)N4CCCC4)ccc32)c1`, `Cc1cc(OCC(=O)Nc2ccc(S(=O)(=O)N3CCCCC3)cc2)cc(C)c1Cl` is lower in “% Inhibition @ 10 uM” value: 2.82% for the first, -2.3% for the second.

Going from `CCS(=O)(=O)c1nc(S(=O)(=O)c2ccc(C)cc2)c(N2CCC(O)CC2)s1` to `COc1ccc(S(=O)(=O)N2CCC(C(=O)Nc3ccc(Br)cc3F)CC2)cc1`, the “% Inhibition @ 10 uM” value falls from 1.15% to -7.3%.

Compared with `CCO/C(O)=C1\C(CC)=NC2(O)c3ccccc3C(=O)C12O` (centres unmarked), `CCOC(=O)C1C(=O)Oc2ccccc2C1=O` (centres unmarked) is lower in “% Inhibition @ 10 uM” value: 8.68% for the first, 7.99% for the second.

First: CCC1CCCCN1CCCNC(=O)c1cc(-c2cccnc2)nc2ccccc12 (centres unmarked)
Second: O=C(c1ccccc1Cl)n1nc(-c2cccnc2)nc1NCc1ccccc1
The “% Inhibition @ 10 uM” value of the first is lower: -5.92% for the first, -2.92% for the second.

First: CCc1ccc(-n2c(SCC(=O)N3CC(C)CC(C)C3)nc3nnc(C)c-3c2N)cc1 (centres unmarked)
Second: CCOC(=O)N1CCN(Cc2ccc(Cl)c(Cl)c2)CC1
The “% Inhibition @ 10 uM” value of the first is higher: 7.3% for the first, -1.78% for the second.

Going from `CSc1nc2ccccc2c(=O)n1-c1ccccc1` to `CCC(=O)/N=c1\sc2ccccc2n1-c1ccccc1`, the “% Inhibition @ 10 uM” value falls from 0.35% to -10.9%.

First: O=c1c(-c2ccccc2)c(N2CCC(Cc3ccccc3)CC2)c1=O
Second: Cc1cccc(OCC(=O)N2CCN(c3nnc(-c4ccccc4)c4ccccc34)CC2)c1
The “% Inhibition @ 10 uM” value of the first is higher: 5.89% for the first, -4.62% for the second.

Compared with `O=C(NCC1CCCO1)c1cccc(N2C(=O)C3C4c5ccccc5C(c5ccccc54)C3C2=O)c1` (centres unmarked), `O=C1c2ccccc2C(=O)N1CC(=O)n1c2c(c3ccccc31)CCCC2` is lower in “% Inhibition @ 10 uM” value: 9.96% for the first, -2.98% for the second.

Going from `CCC(NC(=O)CC1CC2CCC1C2)C(=O)c1nc2ccccc2o1` (centres unmarked) to `CN(c1ccc(C(=O)NC2CC3CCC2C3)cc1)S(C)(=O)=O` (centres unmarked), the “% Inhibition @ 10 uM” value falls from 1.61% to -1.51%.

Going from `CC(C)Oc1ccc(Cc2nnc(S)n2-c2ccccc2)cc1` to `Cc1ccc(OCCCn2c(C(C)O)nc3ccccc32)cc1` (centres unmarked), the “% Inhibition @ 10 uM” value falls from 6.91% to -2.74%.

Going from `COc1ccc(-c2noc(CN(C3CCCCC3)S(=O)(=O)c3ccc(C)cc3)n2)cc1` to `CCOc1ccc(-c2nc(-c3ccc(-c4ccccc4)nc3OC)no2)cc1`, the “% Inhibition @ 10 uM” value falls from -1.22% to -1.33%.

Compared with `COc1ccc(C2NC(=O)c3[nH]nc(C)c32)cc1OC` (centres unmarked), `CNC(=O)C1=NCCCc2cc(OC)c(OC)cc21` is higher in “% Inhibition @ 10 uM” value: -3.35% for the first, 5.55% for the second.

First: CCOCCCn1c(=N)c(C(=O)NC2CCCCC2)cc2c(=O)n3cc(C)ccc3nc21
Second: Cn1c(=O)n(C)c2cc(S(=O)(=O)NC3CCCC3)ccc21
The “% Inhibition @ 10 uM” value of the first is lower: 1.97% for the first, 5.03% for the second.

First: COc1ccc(C2=N/C(=C\c3sccc3C)C(=O)O2)c(Cl)c1
Second: COc1cccc(C(C)NC(=O)c2c(F)cccc2Cl)c1 (centres unmarked)
The “% Inhibition @ 10 uM” value of the first is higher: 7.76% for the first, 0.843% for the second.

Going from `CCOC(=O)C1CCN(C2CCC(c3ccccc3)CC2)CC1` (centres unmarked) to `O=C(CC(C(=O)O)C1CCCO1)NCc1ccccc1` (centres unmarked), the “% Inhibition @ 10 uM” value rises from 5.03% to 25.8%.

First: O=C1CC(c2ccc(Cl)c(Cl)c2)CC(=O)C1=CNCCN1CCNCC1 (centres unmarked)
Second: Cc1ccc(OCCCCN2CCNCC2)c(C(C)(C)C)c1
The “% Inhibition @ 10 uM” value of the first is higher: 5.3% for the first, -4.5% for the second.

Going from `CC1=C(C(=O)Nc2ccccc2C)C(c2ccccc2O)NC(S)=N1` (centres unmarked) to `Cc1ccc(NC(=O)c2c(-c3ccccc3Cl)noc2C)cc1`, the “% Inhibition @ 10 uM” value rises from 1.13% to 1.34%.

Compared with `CC1=C(C(=O)Nc2cccnc2)C(c2cccc(Br)c2)n2nc(-c3cccs3)nc2N1` (centres unmarked), `Cc1ccc(C(=O)C2=C(O)C(=O)N(c3nccs3)C2c2cccc(OCCC(C)C)c2)o1` (centres unmarked) is lower in “% Inhibition @ 10 uM” value: 2.53% for the first, 0.214% for the second.

First: Cc1ccc(NC(=O)C(C)Sc2nc3nc(C)cc(C)n3n2)cc1 (centres unmarked)
Second: Cc1ccc(-c2nc3cc(NC(=O)c4nc[nH]n4)ccc3o2)c(Cl)c1
The “% Inhibition @ 10 uM” value of the first is lower: -7.58% for the first, -1.36% for the second.

Going from `O=C(NCCCO)c1ccccc1C(=O)c1ccccc1` to `CC(C)(C)OC(=O)NCc1cccc(C(=O)N[C@@H](CSCc2ccccc2)C(=O)NCC#N)c1`, the “% Inhibition @ 10 uM” value falls from 6.08% to 5.75%.

Compared with `Nc1cc(S(=O)(=O)c2ccc(Cl)cc2)ccc1Cl`, `NC(=O)C1Cc2cc(Cl)ccc2Sc2ccccc21` (centres unmarked) is lower in “% Inhibition @ 10 uM” value: -1.69% for the first, -6.37% for the second.

Going from `O=C(CCn1c(=O)c2cccn2c2cccnc21)NCCCN1CCCC1=O` to `CCc1cc2c(cc3c(=O)n(CC(=O)N4CCN(c5ccccn5)CC4)ncn32)s1`, the “% Inhibition @ 10 uM” value falls from -1.28% to -1.7%.

First: O=C(NCc1ccco1)C1CCN(S(=O)(=O)c2ccc3nc(O)oc3c2)CC1
Second: O=C(NCc1ccco1)c1ccc(CN2CCc3ccccc3C2)cc1
The “% Inhibition @ 10 uM” value of the first is lower: -4.08% for the first, -1.81% for the second.

First: COc1cccc(NC(=O)C(C)Oc2ccc(Cl)cc2Cl)c1 (centres unmarked)
Second: COc1ccc(OC)c(C2C=C(c3ccc(C(C)C)cc3)Nc3nnnn32)c1 (centres unmarked)
The “% Inhibition @ 10 uM” value of the first is lower: -1.44% for the first, 1.86% for the second.

First: COc1ccc(C(=O)N[C@@H](CC(C)C)C(=O)NCC#N)cc1OC
Second: COc1ccc(/C=C2/SC(=O)N(CC(=O)NCCO)C2=O)cc1OC
The “% Inhibition @ 10 uM” value of the first is lower: -4.72% for the first, 1.52% for the second.

First: CC(N)C1COc2ccccc2O1 (centres unmarked)
Second: C=CCc1ccccc1OCC(O)CN1CCCC(C)C1 (centres unmarked)
The “% Inhibition @ 10 uM” value of the first is higher: -0.902% for the first, -7.08% for the second.

First: COc1ccc(-c2nnc(SC3CCOC3=O)o2)cc1 (centres unmarked)
Second: CCc1s/c(=N\C(C)=O)n(C)c1-c1ccc(OC)cc1
The “% Inhibition @ 10 uM” value of the first is higher: 6.49% for the first, 2.03% for the second.

Compared with `O=C(NCCCCc1ccccc1)C12CC3CC(CC(C3)C1)C2`, `CCCCCC(NC(C)=O)C(=O)NC(=O)NCc1ccccc1` (centres unmarked) is higher in “% Inhibition @ 10 uM” value: -1.48% for the first, 0.565% for the second.

First: CCc1ccc(OCCn2cccc2/C=C2/C(=N)N3OC(C)=CC3=NC2=O)cc1
Second: COc1ccc(-c2cn3c4ccccc4nc3n2CCN2CCCCC2)cc1
The “% Inhibition @ 10 uM” value of the first is lower: 0.317% for the first, 2.94% for the second.

Compared with `CC1CC(C)CN(CCCNC(=O)C2CCCN(S(=O)(=O)N3CCOCC3)C2)C1` (centres unmarked), `CN1CCCN(CC2CC3C=CC2C3)CC1` (centres unmarked) is lower in “% Inhibition @ 10 uM” value: -1.09% for the first, -1.78% for the second.

Going from `COc1ccc(-c2[nH]nc3c2C2(C(=O)Nc4ccc(F)cc42)C(C#N)=C(N)O3)cc1` (centres unmarked) to `COc1ccc(-c2onc(C)c2C)cc1S(=O)(=O)NCCc1ccc(S(N)(=O)=O)cc1`, the “% Inhibition @ 10 uM” value rises from 0.343% to 1.39%.

Going from `Cc1ccc(N2C(N)=C(C#N)C(c3ccsc3)C3=C2CCCC3=O)cc1` (centres unmarked) to `Cc1nn(C)cc1C1C(C#N)=C(N)N(c2cccnc2)C2=C1C(=O)CCC2` (centres unmarked), the “% Inhibition @ 10 uM” value falls from 3.72% to -0.864%.

First: O=C(NCc1ccc2c(c1)OCO2)c1ccc(C(=O)NCc2ccc3c(c2)OCO3)nc1
Second: CCCNC(=O)c1cc(Cl)ccc1NC(=O)c1ccco1
The “% Inhibition @ 10 uM” value of the first is higher: -3.72% for the first, -6.83% for the second.

Compared with `Cc1ccc(OCC(=O)Nc2ccccn2)c(C)c1`, `Cc1nn(Cc2ccccc2)c(C)c1NC(=O)CCC(=O)O` is higher in “% Inhibition @ 10 uM” value: -3.45% for the first, -1.92% for the second.

First: O=C(Nc1ccc(Cl)cc1Cl)c1cc2nc(-c3ccccc3)cc(C(F)(F)F)n2n1
Second: O=S1(=O)Nc2cc3nc4ccccc4nc3c3cccc1c23
The “% Inhibition @ 10 uM” value of the first is lower: -1.5% for the first, 22.9% for the second.

First: COc1ccc(C(=O)c2sc3nc4c(cc3c2N)CCC4)cc1
Second: COc1ccc(N2C(=O)C(Cl)=C(Nc3ccc(OC)cc3OC)C2=O)cc1
The “% Inhibition @ 10 uM” value of the first is higher: -4.49% for the first, -5.07% for the second.

Going from `CC1=C(C(=O)OCC2CCCO2)C(c2cccc(Cl)c2)NC(=O)N1` (centres unmarked) to `COC(=O)c1cc(S(=O)(=O)N2CCN(CCOc3ccc(Cl)cc3)CC2)c[nH]1`, the “% Inhibition @ 10 uM” value rises from -0.582% to 6.61%.

First: Cc1cc(/C=C2/SC(=O)N(C(C)C)C2=O)c(C)n1-c1ccncc1
Second: Cc1ccc(/C=c2\sc3nc(-c4ccc(C(C)(C)C)cc4)nn3c2=O)o1
The “% Inhibition @ 10 uM” value of the first is lower: -0.68% for the first, 1.91% for the second.

Going from `CCCSc1nc(C)cc(COC)c1C#N` to `CN(C)CCSc1nc2ccccc2[nH]1`, the “% Inhibition @ 10 uM” value falls from 1.33% to -5.28%.

First: CCOc1ccc(OCC)c(C=C(C#N)C#N)c1
Second: CCOc1ccc(Cn2c(S)nc3c2c(=O)n(C)c(=O)n3C)cc1OCC
The “% Inhibition @ 10 uM” value of the first is lower: 4.22% for the first, 8.89% for the second.

Compared with `CCC1(Cc2ccccc2)C(=O)NC(=O)NC1=O`, `O=C1C2CC=CCC2C(=O)N1CNc1ccccc1` (centres unmarked) is lower in “% Inhibition @ 10 uM” value: -3.16% for the first, -7.02% for the second.

Going from `CC(C)(C)c1ccc(OCC(=O)NCCN2CCCC2)cc1` to `Cc1ccc(OCC(=O)N2CCN(C(=O)COc3ccc(Br)cc3)CC2)cc1`, the “% Inhibition @ 10 uM” value rises from -3.65% to -1.52%.

First: N#Cc1nc(-c2ccc(F)cc2)oc1NCCN1CCOCC1
Second: CC(CCc1ccccc1)Nc1nc(Cl)nc(NCCN2CCOCC2)n1 (centres unmarked)
The “% Inhibition @ 10 uM” value of the first is higher: 2% for the first, -0.597% for the second.

Compared with `N#Cc1c(NC(=O)c2cc3ncc(Br)cn3n2)sc2c1CCCC2`, `O=C(O)C1CCCCC1C(=O)NCc1cccnc1` (centres unmarked) is lower in “% Inhibition @ 10 uM” value: -3.49% for the first, -5.1% for the second.

Compared with `COc1cc(OC)c(C(C2=C(O)CC(C)(C)CC2=O)C2C(=O)CC(C)(C)CC2=O)cc1Br` (centres unmarked), `CCO/C(O)=C1\C(C)=NC2=C(C(=O)CC(C)(C)C2)C1c1ccc(C)o1` (centres unmarked) is higher in “% Inhibition @ 10 uM” value: -3.55% for the first, -0.736% for the second.

First: COc1ccc2c(c1)c1nc(SCc3cc(=O)n4ccccc4n3)n(C)c(=O)c1n2C
Second: COc1ccc(C(=O)Nc2ccc(OCc3ccccc3)cc2)cc1
The “% Inhibition @ 10 uM” value of the first is lower: -1.37% for the first, 6.24% for the second.

First: CCN1C(=S)NC2CC1(C)Oc1c(O)cc(C(C)(C)C)cc12 (centres unmarked)
Second: COc1ccc(CN2CCC(O)CC2)c(OC)c1
The “% Inhibition @ 10 uM” value of the first is lower: -6.06% for the first, -2.7% for the second.

For `Cc1cc2ncn(/N=C/c3cccnc3)c2cc1C`, the “% Inhibition @ 10 uM” value was 0.343%.
